Reference: article PMC4336329 (PLoS ONE, 2015)
The campaign covered roughly 310,000 compounds. About 14,000 (4.5%) showed an effect of 50% or more. The effect is printed as a negative number. This is one part of the list.

These compounds were tested against human ether-à-go-go-related gene (hERG) potassium channel (human, UniProt Q12809) (assay: primary screen, population patch clamp on CHO cells stably expressing hERG).
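Also: peak tail current of the secondary pulse compared with the same well before compound.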

Chain of human ether-à-go-go-related gene (hERG) potassium channel (Q12809 whole entry, looked up): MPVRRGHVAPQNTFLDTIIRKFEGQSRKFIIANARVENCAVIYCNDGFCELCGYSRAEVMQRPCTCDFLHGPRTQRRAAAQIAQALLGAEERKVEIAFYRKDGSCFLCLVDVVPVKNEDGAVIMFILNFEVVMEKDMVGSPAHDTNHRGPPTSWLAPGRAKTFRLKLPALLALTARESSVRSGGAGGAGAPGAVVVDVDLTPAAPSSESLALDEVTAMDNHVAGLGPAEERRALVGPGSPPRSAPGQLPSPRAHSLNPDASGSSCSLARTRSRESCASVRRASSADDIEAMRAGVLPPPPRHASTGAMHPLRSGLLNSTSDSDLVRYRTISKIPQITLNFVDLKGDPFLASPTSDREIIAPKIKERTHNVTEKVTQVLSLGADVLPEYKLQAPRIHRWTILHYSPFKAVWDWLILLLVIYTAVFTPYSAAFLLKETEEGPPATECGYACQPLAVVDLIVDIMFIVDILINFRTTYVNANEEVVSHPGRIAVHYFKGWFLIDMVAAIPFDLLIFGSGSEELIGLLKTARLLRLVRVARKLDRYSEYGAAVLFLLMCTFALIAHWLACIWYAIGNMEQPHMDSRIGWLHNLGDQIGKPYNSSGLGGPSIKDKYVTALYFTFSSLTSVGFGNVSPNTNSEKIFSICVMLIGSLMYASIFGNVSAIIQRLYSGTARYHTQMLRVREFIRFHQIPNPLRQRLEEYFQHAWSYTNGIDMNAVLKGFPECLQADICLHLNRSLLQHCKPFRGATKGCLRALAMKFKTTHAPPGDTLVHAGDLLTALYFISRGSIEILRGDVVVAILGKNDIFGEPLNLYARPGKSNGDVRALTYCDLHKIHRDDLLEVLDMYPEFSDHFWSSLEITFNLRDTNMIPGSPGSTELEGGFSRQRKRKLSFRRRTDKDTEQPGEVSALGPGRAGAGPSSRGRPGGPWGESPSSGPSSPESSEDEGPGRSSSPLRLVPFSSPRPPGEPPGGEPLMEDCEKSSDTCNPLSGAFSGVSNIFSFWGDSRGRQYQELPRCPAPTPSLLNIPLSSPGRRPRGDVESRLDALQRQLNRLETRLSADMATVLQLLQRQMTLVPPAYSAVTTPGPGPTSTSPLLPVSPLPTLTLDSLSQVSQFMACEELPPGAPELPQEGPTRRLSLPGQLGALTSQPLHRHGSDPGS

Row | Structure (SMILES) | hERG current change (%, negative = inhibition) at 10uM [%]
1 | CN1CCN(c2ccc(C(N)=O)cc2N)CC1 | 6.81
2 | O=C(/C=C/c1cccc([N+](=O)[O-])c1)Nc1cc(C(=O)O)cc(C(=O)O)c1 | 25.2
3 | Cc1ccc(OCCOCCn2ccnc2)c(Br)c1 | -38.4
4 | Cn1c(CCN2CCCCC2)nc2cc([N+](=O)[O-])ccc21 | -70.2
5 | CSCCC(=O)N1CCC(n2nccc2NC(=O)CCCc2ccccc2)CC1 | -5.8
6 | CC1CN(c2oc(-c3ccco3)nc2S(=O)(=O)c2ccccc2)CC(C)O1 (stereo not shown) | -32.1
7 | Cc1cc(Nc2ccc(F)cc2)nc(N)n1 | -14.9
8 | CCN(c1ccccc1)S(=O)(=O)c1ccc(Cl)c(NC(=O)COC(=O)C2CC2C)c1 (stereo not shown) | -7.92
9 | Fc1ccccc1/C=C/c1ccc2ccccc2n1 | 14.4
10 | Cc1ccc(-n2nc(C)c3cc(C(=O)O)sc32)cc1 | 11.7
11 | NC(=O)c1cc(N2C(=O)C=CC2=O)ccc1Cl | 1.79
12 | O=C(Nc1ncc2c(n1)-c1ccccc1CC2)c1ccccc1 | -26.3
13 | Cc1ccc(S(=O)(=O)CC(=O)Nc2ccc3nc(C)sc3c2)cc1 | -2.1
14 | CCCCC1CCC(C(=O)N(C)CC(=O)Nc2cccc(OC)c2)CC1 (stereo not shown) | 19.4
15 | CC(C)(C)c1ccc(/C=C/C(=O)NCCCn2ccnc2)cc1 | -46.5
16 | Cc1cc2oc(C(=O)N(Cc3ccccc3)c3ccccn3)cc(=O)c2cc1Cl | 6.98
17 | CCN1CCc2nc3ccccc3c(C(=O)Nc3ccc(F)cc3)c2C1 | -74.5
18 | CC1(C(=O)O)CCC(C(=O)Nc2ccccc2)C1(C)C (stereo not shown) | 19.9
19 | COC(=O)Nc1cccn(Cc2c(Cl)cccc2Cl)c1=O | 0.735
20 | O=C(Nc1nnc(C2CC2)s1)C1Cc2ccccc2CN1S(=O)(=O)c1cccs1 (stereo not shown) | 1.33
21 | CCOc1ccc(C(=O)NCC(=O)NC(C)CCc2ccccc2)cc1OCC (stereo not shown) | -34.9
22 | CCCCOc1cccc(C2C(C(=O)c3cccs3)=C(O)C(=O)N2Cc2cccnc2)c1 (stereo not shown) | 30.4
23 | CC1(C)CC(=O)C=C(c2cccs2)C1 | -8.45
24 | CN1C(=O)C(=O)/C(=C(/O)c2ccccc2)C1c1ccc(Br)cc1 (stereo not shown) | 13.6
25 | CS(=O)(=O)N1CCN(c2ccc(C(=O)N3CCOCC3)cc2[N+](=O)[O-])CC1 | 0.387
